Data taken from the supplement of paper PMC9135407.
“And” between values parts separate entries of the source, which are not always exact repeats. Identical values can stand only once. Counter-ions that a name gives are not always drawn. Hit rate of the full screen: of about 5,800 compounds, about 620 (11%) showed activity.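 How the source made its calls: active = score above a cut-off or among the top three wells of a plate; in these data no inactive exceeds 0.85.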 The list shows a part of the results, in another mix than the full data.

System: primary human hepatic stellate cells (donor 1)
Assay: scaled lipid accumulation score (0 = DMSO-like, 1 = nortriptyline-like); higher = stronger HSC inactivation (lipid re-accumulation), active = hit call of the paper
Details: 48 h
[1] = library stock concentration: 10 mM
[2] = library stock concentration: 3.33 mM
[3] = library stock concentration: 1 mM
[4] = library stock concentration: 2 mM
[5] = library stock concentration: 4.9 mM
[6] = library stock concentration: 80 uM
[7] = library stock concentration: 400 uM

With `CC(C)N(CCC(=O)c1ccc2ccccc2c1)Cc1ccccc1.Cl` the “scaled lipid accumulation score” value [1] was active: 1.1.

With `NCCNc1ncc(C(N)=O)c(Nc2cccc(C(F)(F)F)c2)n1` [Syk Inhibitor II] the “scaled lipid accumulation score” value [2] was inactive: 0.589.

In the case of `CO/N=C(\C(=O)N[C@@H]1C(=O)N2C(C(=O)O)=C(CSc3nnnn3C)CS[C@H]12)c1csc(N)n1`, the “scaled lipid accumulation score” value [1] is reported as inactive: ≤ 0.

For `O=C1c2c(O)cccc2C([C@@H]2O[C@H](CO)[C@@H](O)[C@H](O)[C@H]2O)c2cc(CO)cc(O)c21` (stereo not given in full) [Aloin], the “scaled lipid accumulation score” value [2] was inactive: ≤ 0 and the “scaled lipid accumulation score” value [1] was inactive: ≤ 0.

`CC[N+](CC)(CC)CCOc1ccc(/C=C/c2ccccc2)cc1` was tested, and the “scaled lipid accumulation score” value [1] was inactive: 0.26 and inactive: ≤ -0.006.

For `Cc1ccccc1C(=O)Nc1ccc(C(=O)N2CCCC(O)c3cc(Cl)ccc32)c(C)c1` (stereo not given) [Tolvaptan], the “scaled lipid accumulation score” value [2] was inactive: ≤ 0 and the “scaled lipid accumulation score” value [1] was inactive: ≤ 0.

`CC(C)c1cc2c(c(O)c1O)[C@@]13CCCC(C)(C)[C@@H]1C[C@@H]2OC3=O` [Carnosol] was tested, and the “scaled lipid accumulation score” value [3] was inactive: ≤ 0.

`Nc1nc2[nH]cnc2c(=S)[nH]1` [Thioguanine] was tested, and the “scaled lipid accumulation score” value [1] was inactive: ≤ 0 and the “scaled lipid accumulation score” value (library stock concentration: 12 mM) was inactive: ≤ 0.

`Clc1ccc(C2(c3ccc(-c4cn[nH]c4)cc3)CCNCC2)cc1` was tested, and the “scaled lipid accumulation score” value [4] was active: 0.95 and the “scaled lipid accumulation score” value [1] was active: 1.16.

`COc1ccccc1N1CCN(CCN2C(=O)c3ccccc3C(C)(C)C2=O)CC1` [ARC 239 dihydrochloride] was tested, and the “scaled lipid accumulation score” value [1] was inactive: 0.088.

In the case of `CC(=O)C1C(=O)C=C(C)OC1=O` (stereo not given), the “scaled lipid accumulation score” value [1] is reported as inactive: ≤ 0.

For `CCCCC[C@H](O)/C=C/[C@H]1[C@H](O)CC(=O)[C@@H]1CCCCCCC(=O)NCCO` [Prostaglandin E1 Ethanolamide], the “scaled lipid accumulation score” value [3] was inactive: ≤ 0.

In the case of `CN(C)C(=O)C(CCN1CCC(O)(c2ccc(Cl)cc2)CC1)(c1ccccc1)c1ccccc1` [Loperamide HCl], the “scaled lipid accumulation score” value [2] is reported as inactive: 0.485 and the “scaled lipid accumulation score” value [1] is reported as inactive: 0.611.

With `CN(C)C(=O)C(CCN1CCC(O)(c2ccc(Cl)cc2)CC1)(c1ccccc1)c1ccccc1` [Loperamide hydrochloride] the “scaled lipid accumulation score” value was inactive: 0.682 and the “scaled lipid accumulation score” value [1] was inactive: 0.699 and inactive: 0.787.

In the case of `COc1cc(C[C@@H](CO)[C@H](CO)Cc2ccc(O)c(OC)c2)ccc1O`, the “scaled lipid accumulation score” value [1] is reported as inactive: 0.022.

With `COc1ccc(/C=C/C(=O)Nc2ccccc2C(=O)O)cc1OC` [Tranilast] the “scaled lipid accumulation score” value [3] was inactive: ≤ 0, the “scaled lipid accumulation score” value [2] was inactive: ≤ 0 and the “scaled lipid accumulation score” value (library stock concentration: 6.1 mM) was inactive: ≤ -0.006 and inactive: ≤ 0. For the same compound, the “scaled lipid accumulation score” value [1] was inactive: ≤ 0 and inactive: ≤ -0.006.

For `COc1ccc(/C=C/C(=O)Nc2ccccc2C(=O)O)cc1OC`, the “scaled lipid accumulation score” value [1] was inactive: ≤ 0.

With `CCOC(=O)C1=C(COCCN)NC(C)=C(C(=O)OC)C1c1ccccc1Cl` (stereo not given) [Amlodipine besylate] the “scaled lipid accumulation score” value (library stock concentration: 3.5 mM) was inactive: ≤ 0.

For `CCOC(=O)C1=C(COCCN)NC(C)=C(C(=O)OC)C1c1ccccc1Cl` (stereo not given) [Amlodipine], the “scaled lipid accumulation score” value [2] was inactive: 0.492, the “scaled lipid accumulation score” value [5] was inactive: ≤ -0.006 and the “scaled lipid accumulation score” value [1] was inactive: 0.33.

In the case of `Oc1ccc(/C=C/c2cc(O)cc(O)c2)cc1` [Resveratrol], the “scaled lipid accumulation score” value is reported as inactive: 0.202, the “scaled lipid accumulation score” value [6] is reported as inactive: ≤ 0 and the “scaled lipid accumulation score” value [7] is reported as inactive: ≤ 0. For the same compound, the “scaled lipid accumulation score” value [4] was inactive: ≤ 0, the “scaled lipid accumulation score” value [2] was inactive: ≤ 0 and the “scaled lipid accumulation score” value [1] was inactive: ≤ 0 and inactive: 0.15 and inactive: ≤ -0.006. The “scaled lipid accumulation score” value (library stock concentration: 21.9 mM) was inactive: 0.06.

`Oc1ccc(/C=C/c2cc(O)cc(O)c2)cc1` [trans-Resveratrol] was tested, and the “scaled lipid accumulation score” value [3] was inactive: 0.021.

`Oc1ccc(/C=C/c2cc(O)cc(O)c2)cc1` was tested, and the “scaled lipid accumulation score” value [1] was inactive: ≤ 0.

For `O=C(Nc1cc(C(F)(F)F)cc(C(F)(F)F)c1)c1cc(Cl)ccc1O`, the “scaled lipid accumulation score” value [1] was active: 1.1.

For `Cc1nc(N)sc1-c1ccnc(Nc2ccc(N3CCOCC3)cc2)n1`, the “scaled lipid accumulation score” value [1] was active: 1.07.

For `CCCCC[C@](C)(O)/C=C/[C@@H]1[C@@H](C/C=C\CCCC(=O)OC)[C@@H](O)C[C@H]1O` [15(S)-15-methyl Prostaglandin F2.alpha. methyl ester], the “scaled lipid accumulation score” value [3] was inactive: ≤ 0.

`Cc1ccc(-c2ccc3c(ccc4sc5c(c43)NC[C@@H](C)NC5=O)n2)cn1` was tested, and the “scaled lipid accumulation score” value [1] was active: 1.28.

For `CC1(C)CC(=O)c2c(C(F)(F)F)nn(-c3ccc(C(N)=O)c(N[C@H]4CC[C@H](OC(=O)CN)CC4)c3)c2C1`, the “scaled lipid accumulation score” value [1] was active: 1.05.

`CCOc1cc2ncc(C#N)c(Nc3ccc(F)c(Cl)c3)c2cc1NC(=O)/C=C/CN(C)C` was tested, and the “scaled lipid accumulation score” value [6] was inactive: 0.071, the “scaled lipid accumulation score” value [7] was inactive: ≤ -0.009 and the “scaled lipid accumulation score” value [4] was inactive: 0.269.

In the case of `CCOc1cc2ncc(C#N)c(Nc3ccc(F)c(Cl)c3)c2cc1NC(=O)/C=C/CN(C)C` [Pelitinib (EKB-569)], the “scaled lipid accumulation score” value [1] is reported as inactive: 0.498.

`CCCCC[C@H](O)/C=C/C1=C(CCCCCCC(=O)O)C(=O)CC1` [Prostaglandin B1] was tested, and the “scaled lipid accumulation score” value [3] was inactive: ≤ 0 and inactive: ≤ -0.021.

In the case of `CCCc1c(-c2ccc(O)cc2)nn(-c2ccc(O)cc2)c1-c1ccc(O)cc1` [1,3,5-tris(4-hydroxyphenyl)-4-propyl-1H-pyrazole], the “scaled lipid accumulation score” value [1] is reported as inactive: ≤ -0.07.

`CCCc1c(-c2ccc(O)cc2)nn(-c2ccc(O)cc2)c1-c1ccc(O)cc1` [Propylpyrazole Triol] was tested, and the “scaled lipid accumulation score” value [3] was inactive: ≤ 0.

With `Oc1c(Cl)cc(Cl)c(Cl)c1Cc1c(O)c(Cl)cc(Cl)c1Cl` [Hexachlorophene] the “scaled lipid accumulation score” value [5] was inactive: ≤ -0.001 and the “scaled lipid accumulation score” value [1] was inactive: 0.206.

`Oc1c(Cl)cc(Cl)c(Cl)c1Cc1c(O)c(Cl)cc(Cl)c1Cl` was tested, and the “scaled lipid accumulation score” value [1] was inactive: 0.353.

`Cc1c(N(C)C)c(=O)n(-c2ccccc2)n1C` [Aminophenazone] was tested, and the “scaled lipid accumulation score” value [1] was inactive: ≤ 0.

For `Cc1c(N(C)C)c(=O)n(-c2ccccc2)n1C` [Amidopyrine], the “scaled lipid accumulation score” value was inactive: ≤ 0, the “scaled lipid accumulation score” value [2] was inactive: ≤ 0 and the “scaled lipid accumulation score” value [1] was inactive: 0.058.

`Cc1c(N(C)C)c(=O)n(-c2ccccc2)n1C` [Aminopyrine] was tested, and the “scaled lipid accumulation score” value (library stock concentration: 8.6 mM) was inactive: ≤ 0.

With `C=C1C(=O)[C@]23[C@H](O)[C@H]1CC[C@H]2[C@@]12CO[C@]3(O)[C@@H](O)[C@@H]1C(C)(C)CC[C@@H]2O` [Oridonin] the “scaled lipid accumulation score” value [2] was inactive: ≤ 0 and the “scaled lipid accumulation score” value [1] was inactive: 0.639.

For `NC(=O)c1ccc2[nH]ccc2c1`, the “scaled lipid accumulation score” value [7] was inactive: ≤ -0.005, the “scaled lipid accumulation score” value [4] was inactive: ≤ -0.005 and the “scaled lipid accumulation score” value [1] was inactive: ≤ -0.055 and inactive: ≤ -0.001 and inactive: ≤ -0.005.

`NC[C@@H]1O[C@H](O[C@H]2[C@@H](O)[C@H](O[C@@H]3[C@@H](O)[C@H](N)C[C@H](N)[C@H]3O[C@H]3O[C@H](CO)[C@@H](O)[C@H](O)[C@H]3N)O[C@@H]2CO)[C@H](N)[C@@H](O)[C@@H]1O` [Paromomycin sulfate] was tested, and the “scaled lipid accumulation score” value was inactive: ≤ 0 and the “scaled lipid accumulation score” value [1] was inactive: ≤ 0 and inactive: ≤ -0.027.

With `Nc1nc(CC(=O)Nc2ccc(CCNC[C@H](O)c3ccccc3)cc2)cs1` [Mirabegron] the “scaled lipid accumulation score” value [2] was inactive: ≤ 0 and the “scaled lipid accumulation score” value [1] was inactive: 0.331.

With `CC[C@]1(O)C[C@H]2CN(CCc3c([nH]c4ccccc34)[C@@](C(=O)OC)(c3cc4c(cc3OC)N(C=O)[C@H]3[C@@](O)(C(=O)OC)[C@H](OC(C)=O)[C@]5(CC)C=CCN6CC[C@]43[C@@H]65)C2)C1` [Vincristine] the “scaled lipid accumulation score” value [2] was inactive: 0.004 and the “scaled lipid accumulation score” value [1] was inactive: 0.512.

`COc1ccccc1OCC(O)CO` (stereo not given) [Guaifenesin] was tested, and the “scaled lipid accumulation score” value was inactive: ≤ 0, the “scaled lipid accumulation score” value [2] was inactive: ≤ 0 and the “scaled lipid accumulation score” value [1] was inactive: 0.084 and inactive: ≤ 0.

With `O=c1cc(N2CCNCC2)oc2c(-c3ccccc3)cccc12` the “scaled lipid accumulation score” value [1] was active: 1.28.

With `Cc1cc(=O)[nH]c(=S)[nH]1` [Methylthiouracil] the “scaled lipid accumulation score” value [2] was inactive: ≤ 0 and the “scaled lipid accumulation score” value [1] was inactive: ≤ 0 and inactive: ≤ -0.001.

With `Cc1ccc(F)c(NC(=O)Nc2ccc(-c3cccc4[nH]nc(N)c34)cc2)c1` the “scaled lipid accumulation score” value [1] was active: 1.08.

With `CC(=O)[C@H]1CC[C@H]2[C@@H]3C=CC4=CC(=O)CC[C@@]4(C)[C@@H]3CC[C@]12C` [Dydrogesterone] the “scaled lipid accumulation score” value was inactive: 0.003, the “scaled lipid accumulation score” value [2] was inactive: ≤ 0 and the “scaled lipid accumulation score” value [1] was inactive: ≤ -0.001.

In the case of `CN1CCC(=C2c3ccccc3CCc3sccc32)CC1.O=C(O)/C=C\C(=O)O` [Pizotyline], the “scaled lipid accumulation score” value [1] is reported as active: 1.2.

With `C(=C/CCNC)(/c1c2cccc1)\c3c(cccc3)CC2.Cl` [Nortriptyline hydrochloride] the “scaled lipid accumulation score” value [1] was active: 1.04.

For `C=CC(=O)Nc1cc(-n2c(=O)ccc3cnc4ccc(-c5ccc(NS(C)(=O)=O)cc5)cc4c32)ccc1C`, the “scaled lipid accumulation score” value [6] was inactive: ≤ -0.001, the “scaled lipid accumulation score” value [7] was inactive: ≤ -0.001 and the “scaled lipid accumulation score” value [4] was inactive: 0.003. For the same compound, the “scaled lipid accumulation score” value [1] was inactive: 0.06.

In the case of `CN1[C@@H]2CC[C@H]1C[C@@H](OC(=O)c1c[nH]c3ccccc13)C2` [Tropisetron hydrochloride], the “scaled lipid accumulation score” value [1] is reported as inactive: ≤ 0.

In the case of `CN1[C@@H]2CC[C@H]1C[C@@H](OC(=O)c1c[nH]c3ccccc13)C2` [Tropisetron HCl], the “scaled lipid accumulation score” value is reported as inactive: 0.639 and the “scaled lipid accumulation score” value (library stock concentration: 7 mM) is reported as inactive: 0.312.

For `CN1[C@@H]2CC[C@H]1C[C@@H](OC(=O)c1c[nH]c3ccccc13)C2`, the “scaled lipid accumulation score” value [1] was inactive: ≤ 0 and inactive: 0.539.

With `CN1[C@@H]2CC[C@H]1C[C@@H](OC(=O)c1c[nH]c3ccccc13)C2` [Tropisetron] the “scaled lipid accumulation score” value [2] was inactive: 0.308 and the “scaled lipid accumulation score” value [1] was inactive: 0.518.

`CCCCC[C@H](O)/C=C/[C@H]1C(=O)C[C@H](O)[C@@H]1C/C=C\CCCC(=O)NC(CO)CO` [Prostaglandin D2 serinol amide] was tested, and the “scaled lipid accumulation score” value [3] was inactive: ≤ 0.

In the case of `N=C(N)SCCC[C@H](N)C(=O)O` [Thioarginine (hydrobromide)], the “scaled lipid accumulation score” value [3] is reported as inactive: ≤ 0.

For `Cc1cccc(C)c1OCC(C)N` (stereo not given) [Mexiletene hydrochloride], the “scaled lipid accumulation score” value [1] was inactive: 0.726.

In the case of `Cc1cccc(C)c1OCC(C)N` (stereo not given) [Mexiletine HCl], the “scaled lipid accumulation score” value [2] is reported as inactive: ≤ 0 and the “scaled lipid accumulation score” value [1] is reported as inactive: 0.025.

With `Cc1cccc(C)c1OCC(C)N` (stereo not given) [Mexiletine hydrochloride] the “scaled lipid accumulation score” value was inactive: 0.538, the “scaled lipid accumulation score” value (library stock concentration: 9.3 mM) was inactive: 0.045 and the “scaled lipid accumulation score” value [1] was inactive: 0.226.
